According to the supplement of paper PMC11417369:
± gives the standard deviation of the averaged measurements. Some of the results follow.

Test system: PfAP2-EXP AP2 domain (GST-tagged)
Experiment: gcPBM binding intensity (ln(normalized median fluorescence intensity)); higher = stronger DNA binding
How it was run: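 DNA-binding domains from P. falciparum, fused to GST and produced in E. coli, were put on an Agilent 4 × 180k double-stranded probe array for 1 h in 1× PBS holding 1% milk, 0.2 mg/ml BSA, 0.5% salmon testes DNA and 0.03% Triton X-100. Probes were primer-extended, 36 bp long and drawn from intergenic genomic regions, with negative controls included. After Alexa488 anti-GST antibody detection and a 488 nm scan, binding intensity was set as the highest Masliner-normalised natural-log median intensity across replicate spots of either probe orientation.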

Sequence	gcPBM binding intensity (ln)
TTTTTAAAAAAAAAAAAATAAAAAAAAAAAAAATAT [XGTACX_negctrl_site7]	8.17 ± 0.54
ATTTATATATTTATATGTACATATCTATACATATAT [XGTACX_site7580]	8.96 ± 0.42
TGGACCAAACGACAAAAAAAAAGCAGAAAACAAAAA [GTGCAC_negctrl_site693]	8.88 ± 0.53
AAATAAAGAATATAAATACACACTTAAATATATATT [CACACA_site4007]	8.38 ± 0.49
ATAATAAAATAAATCACACATAATATAATGTAATAT [CACACA_site6144]	8.44 ± 0.3
ACAAAAAAATAAAATATATATATATATATAATATAT [CACACA_negctrl_site805]	8.58 ± 0.16
TTTATATTAATTTGTGTAAATGCATATGATGAGCAT [XGTACX_negctrl_site254]	8.44 ± 0.38
ATATATATATATATATGTACATATAATTTTTTTTTT [XGTACX_site6948]	10.2 ± 0.38
ATAACAATTATTTATCTACACACTTTTATGTTATTT [CACACA_site7886]	8.87 ± 0.42
TAAATTTTTTTTTTGATGCACTTAGTTATTATATTT	8.53 ± 0.36
AATGGCAAAATAGGCACACACACATATACAGATATA [CACACA_site4726]	8.82 ± 0.63
AATTTTTTATACACAAGTACAAACGCGTAGTCACTT [XGTACX_site2458]	8.54 ± 0.4
ATTCCACTGTTTTAGTGTACTGGTCGTTTTTTTTTT [XGTACX_site1738]	8.66 ± 0.44
ATTAAGTCTTATATTACACACGACATTGTAATGTAA [CACACA_site528]	8.36 ± 0.41
TCCAAAATATCCTTCACACACGAACAGTTTCATTTA [CACACA_site5511]	8.62 ± 0.53
AAAAATAAAACAATTACACACATAATTTTATTTTTA [CACACA_site928]	8.41 ± 0.31
TTTATTTTATCATTTGCACACGCACCCCCACATAAA [CACACA_site8007]	10 ± 0.12
TTCTAAATTAATAATACACACTTGCTAAAATCATTA [CACACA_site5733]	8.13 ± 0.26
ATATAAATAACGTGTACACACATATGTATTTATATA [CACACA_site6520]	8.72 ± 0.3

Sequence	gcPBM binding intensity (ln)
TTCTTATATTGTACAGTACACACCTTTATAATGTTA [CACACA_site7953]	9.04 ± 0.25
ATTCTCCATGTTTGATGTACTCATATGACGACGGAG [XGTACX_site4923]	8.79 ± 0.5
TTTTTATGATTATACTTATATAATTTCATGATTGAA [CACACA_negctrl_site228]	8.21 ± 0.38
AATATTTCTATATGAACATGCAATGTATCTTTTTAT [TGCATGCA_site738]	8.37 ± 0.2
AATACTTACCAAAATACACACACACCCAAAATATAT [CACACA_site8559]	8.83 ± 0.48
ATTTTTATTTTATATACACACAATAATACTAGAATA [CACACA_site7810]	8.33 ± 0.31
ATTTCATATGGTCAACGTACTCATGCATCCCTCCTT [XGTACX_site437]	9.13 ± 0.57
ATATATATCTACATATGTACATATATACATTACACA [XGTACX_site7210]	8.68 ± 0.38
AGATATATAAAATATACACACAGTAATATTTATATA [CACACA_site6767]	8.09 ± 0.39
TCAAAAAAGACACACCGTACATACTATTTGGACAGG [XGTACX_site7699]	8.51 ± 0.36
AATTATATTTGAAATACACACATAAAAACCATATAG [CACACA_site7598]	8.89 ± 0.51
ATATATATATATATATGTACATATTTACATTTTGTA [XGTACX_site3529]	10.1 ± 0.38
AATAAAGGAGCCTATGAACACACACCGGTACATATA [CACACA_site9352]	8.77 ± 0.3
TATACACATTCGCGTTGTACAAAAAAAAAAAAAAAG [XGTACX_site2880]	8.53 ± 0.19
ATAATAATAGTAATATGTACATATATATATATATAT [XGTACX_site7437]	10.2 ± 0.53
ATAAAAAAAAGAAAAACACACACATATATATATATA [CACACA_site8243]	10.2 ± 0.16
AAGATGAACCTTTACACATGCAACAAAAAATATACA [TGCATGCA_site166]	9.2 ± 0.3
ATCAACATTATGTTTAGTACTTAGTGAATTGTTAAT [XGTACX_site4913]	8.6 ± 0.4
TTTTTTTTTTTTAGAGTACACACTTTTTTACATTTA [CACACA_site3836]	8.51 ± 0.44

Sequence	gcPBM binding intensity (ln)
GTTGAAAATACAGAACGTACACGTTTGCCATATTGT [XGTACX_site2254]	8.44 ± 0.37
TATGAAATGCTCCAATCACACATGAATGTAATATAT [CACACA_site5458]	8.21 ± 0.42
ATATGATTTATAAAGTGTACCTTATTATAAGAAACA [XGTACX_site7914]	8.44 ± 0.35
ACTTTTATTATTTATATACACACTTGCTGAAATGTT [CACACA_site3637]	9.14 ± 0.45
AGTTATAAAATATTTGCATGTAAATATATTATCTAT [TGCATGCA_site1015]	8.96 ± 0.2
TAATATATTATGAGGGGTACATAATATGGTTTATTG [XGTACX_site8301]	8.76 ± 0.48
ATATTTATATTTATGTGTACATATGAAATAATTATT [XGTACX_site7765]	8.53 ± 0.28
AATGTATTCTCTCATGCACACTTTCTTTAAGGGACC [CACACA_site5245]	8.68 ± 0.26
CTAAGAAGTATTTACACACCAACAAGGCGAAAAAAA [CACACA_site2945]	8.45 ± 0.28
ATATCTTATATCTTCACACATACACAATAAATACAT [CACACA_site5028]	8.74 ± 0.42
TAAGATGATATAGACTGTACATATTGAACTTACAAG [XGTACX_site4290]	8.53 ± 0.37
GAAGAAAAAGAAAAAAGTACATATATTATATTATAA [XGTACX_site7870]	8.43 ± 0.42
TAATATATTAATTTTTGTACTTAATTATATGTTTTT [XGTACX_site5654]	8.31 ± 0.38
GTTTTTAAATATGCCATACACACTACTATATAATAA [CACACA_site1927]	8.7 ± 0.33
ATTCATATTAAATATATATATATATATATATATATA [CACACA_negctrl_site484]	10 ± 0.43
ACCATGATAAATGTATTAAATGTATCATAACCTATG [CACACA_negctrl_site513]	8.26 ± 0.38
AACGAAAGAAAAAAAGCACACACAGTTTTGAGCAAT [CACACA_site8658]	8.71 ± 0.47
ATCCGTGTCTGAAATACACACATGATAATGTGAATG [CACACA_site8210]	8.34 ± 0.34
